# Measured values: the supplement of paper PMC4166925
# ± gives the standard deviation of the averaged measurements. Over roughly 33,000 sequences, “E-score (dimensionless, -0.5 to 0.5)” has its median near -0.049; the highest 2% begin near 0.37. The list shows a part of the results.
# Test system: T1, PmTbr T-box DNA-binding domain (GST fusion)
# T1 sequence: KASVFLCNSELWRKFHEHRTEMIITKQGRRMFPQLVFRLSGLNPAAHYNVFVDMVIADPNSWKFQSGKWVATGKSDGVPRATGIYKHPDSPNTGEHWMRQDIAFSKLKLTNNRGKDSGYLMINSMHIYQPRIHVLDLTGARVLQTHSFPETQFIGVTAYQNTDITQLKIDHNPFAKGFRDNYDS
# Assay: PBM E-score of 8-mer (E-score (dimensionless, -0.5 to 0.5)); Tbr is Tbrain of the sea star Patiria miniata (Pm) or the sea urchin Strongylocentrotus purpuratus (Sp); higher = stronger binding preference; most listed sequences are background and not binding sites
# Details: the construct has about 5 more residues each side
# Outline: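 Expression of GST-fused Tbr T-box DNA-binding domains, each holding the full T-box plus roughly five flanking residues, was carried out in BL21 E. coli at 20 °C, with purification by glutathione affinity chromatography. Universal Agilent arrays made double-stranded by primer extension were incubated with the protein at 200 nM in PBS (pH 7.5), then scanned and quantified. All ungapped 8-mers were scored from probe intensities, and each received an enrichment E-score from the Universal PBM Analysis Suite, averaged over duplicate arrays.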
row,Sequence,PBM E-score of 8-mer
1,AATTCCCT,-0.123 ± 0.0042
2,GGCACCAC,0.225 ± 0.022
3,TAAGTATA,-0.177 ± 0.089
4,GCGAGTAA,0.106 ± 0.01
5,ATAGACCA,-0.233 ± 0.0056
6,TCCCCAGA,-0.207 ± 0.12
7,ATCACCGA,0.145 ± 0.011
8,AATATATG,-0.0917 ± 0.095
9,ACACGGGC,-0.108 ± 0.0085
10,AGTACTCC,-0.28 ± 0.033
11,CGTCAGCA,0.184 ± 0.024
12,GATCTAAC,-0.106 ± 0.013
13,AATTTTCT,-0.253 ± 0.071
14,AACAGTCT,-0.164 ± 0.086
15,ATTTGAAC,-0.162 ± 0.051
16,ATAAATCC,-0.167 ± 0.052
17,AACAAAGT,0.0688 ± 0.018
18,CCCGATTC,-0.383 ± 0.017
19,ACACTGAC,0.209 ± 0.018
20,CTTCGTCA,0.276 ± 0.0035
21,CGATACAC,0.0423 ± 0.075
22,CCCGCCAC,0.203 ± 0.013
23,AAAGGGCG,-0.0142 ± 0.031
24,TACGCCAA,-0.111 ± 0.024
25,CGCCGAGA,-0.0564 ± 0.035

row,Sequence,PBM E-score of 8-mer
1,CATCAGCA,-0.0372 ± 0.033
2,CGTGGCTA,-0.139 ± 0.056
3,ACCGTTCG,0.0195 ± 0.018
4,CATTGGGA,-0.109 ± 0.052
5,AATCAATA,-0.205 ± 0.0079
6,GATCCATC,-0.199 ± 0.021
7,ACGAAGAC,0.054 ± 0.017
8,CGCTCTGA,-0.133 ± 0.034
9,CCCCGGTC,-0.195 ± 0.059
10,AACCAATA,-0.0877 ± 0.084
11,AAGTGTTG,0.437 ± 0.006
12,CCCCTCCG,0.137 ± 0.019
13,AACGAACC,-0.0722 ± 0.016
14,TACAGTCA,-0.0962 ± 0.012
15,CCAGTTGC,0.15 ± 0.024
16,TGCCCCCA,-0.185 ± 0.011
17,ACAGCGAA,-0.177 ± 0.02
18,TGAGAGCA,0.1022 ± 0.00097
19,ATCATTAA,-0.232 ± 0.069
20,AAATCTGT,0.217 ± 0.089
21,CAGTGTTC,-0.0572 ± 0.047
22,ATCTCGTC,0.28202 ± 8.5e-05
23,CCACTGCG,0.0204 ± 0.036
24,AGCCCAAG,-0.148 ± 0.064
25,AAAATAGT,0.0057 ± 0.03

row,Sequence,PBM E-score of 8-mer
1,ACAAGCGA,0.023 ± 0.029
2,GAGCGGCC,-0.139 ± 0.043
3,CCTGATAC,-0.223 ± 0.059
4,CAAGAGGC,-0.004 ± 0.008
5,GATCTCTA,-0.0709 ± 0.022
6,CCTTCGAC,0.0797 ± 0.032
7,ACTTAACG,0.232 ± 0.072
8,CACGCTGC,0.199 ± 0.03
9,AGGTCCAC,-0.228 ± 0.0069
10,AAAGCGGT,-0.0754 ± 0.039
11,ATGTTCGC,0.142 ± 0.033
12,CACCTATG,0.429 ± 0.011
13,ACCTGTCA,0.367 ± 0.013
14,CATGTTCC,-0.131 ± 0.022
15,GCGTGCTA,0.261 ± 0.0046
16,CTGCTCTA,-0.0917 ± 0.04
17,ATAGATGG,-0.267 ± 0.042
18,CGGCACGA,-0.149 ± 0.008
19,ACACCTAG,0.462 ± 0.0066
20,CAATTATA,-0.177 ± 0.069
21,CGCCTTTA,0.219 ± 0.0073
22,CGGTAGTA,-0.144 ± 0.021
23,GCTTGTGA,0.187 ± 0.0082
24,CCAGTCTA,-0.108 ± 0.001
25,ACGGGTGC,0.207 ± 0.018

row,Sequence,PBM E-score of 8-mer
1,GCTGCCTA,-0.121 ± 0.043
2,AAATCTAC,0.00035 ± 0.005
3,ACCTATCC,-0.0926 ± 0.076
4,CATGACTA,-0.312 ± 0.035
5,AATTAATG,-0.162 ± 0.09
6,AAATTTTC,-0.0378 ± 0.12
7,CCTGTTCA,0.122 ± 0.036
8,CACTTAGC,0.315 ± 0.011
9,ACTTGTGG,0.196 ± 0.014
10,CCCACAAG,-0.268 ± 0.0069
11,CAAGGAGC,-0.145 ± 0.1
12,AAGGATCG,-0.0556 ± 0.0016
13,CTGCTACA,-0.0242 ± 0.021
14,CGCGGAGA,0.0762 ± 0.027
15,AAATGACA,0.146 ± 0.0036
16,ATTCCTGA,-0.189 ± 0.091
17,TCGACTAA,-0.00758 ± 0.0041
18,CCGTGTCA,0.236 ± 0.0063
19,CAAACTTC,-0.211 ± 0.1
20,AGGTACTA,-0.00624 ± 0.01
21,CCCTGGGC,-0.113 ± 0.0098
22,TCGAGACA,0.0196 ± 0.017
23,CCGGGGCC,-0.21 ± 0.014
24,CCCCCCCC,-0.0147 ± 0.067
25,AAAACAGC,0.191 ± 0.027

row,Sequence,PBM E-score of 8-mer
1,AGTATCCG,-0.314 ± 0.053
2,ATATCCGA,0.00666 ± 0.034
3,ACGGAGTC,-0.0701 ± 0.05
4,CCCCGGTA,-0.214 ± 0.043
5,CACCCCCC,0.165 ± 0.06
6,TGTCGCAA,0.263 ± 0.018
7,AACCCTAG,0.158 ± 0.018
8,CACGGACC,-0.137 ± 0.0039
9,GTCCGATA,-0.0905 ± 0.033
10,CCGTAGTC,-0.192 ± 0.042
11,GAGGACGC,-0.0963 ± 0.027
12,GAATGAGC,-0.256 ± 0.019
13,GAGCTGGC,-0.0285 ± 0.0058
14,ATTGTGGC,0.0517 ± 0.05
15,AAACGACC,0.0442 ± 0.019
16,AAACCTCA,-0.127 ± 0.083
17,ACACAGGA,-0.0972 ± 0.037
18,CGTCCAGC,-0.151 ± 0.028
19,GCATGAGC,-0.0885 ± 0.018
20,GCTCCAAA,-0.106 ± 0.013
21,ATCCTATG,-0.219 ± 0.021
22,AACGAGCA,-0.0129 ± 0.056
23,ATTAATAA,-0.175 ± 0.071
24,ATCTCCGG,0.0566 ± 0.032
25,TGAGGGAA,-0.0537 ± 0.066

row,Sequence,PBM E-score of 8-mer
1,ATTTAAGG,-0.162 ± 0.086
2,AATCATGG,-0.0502 ± 0.028
3,AATAGTCA,0.0326 ± 0.014
4,AGCAGGCC,-0.22 ± 0.023
5,CTACGCTA,-0.0611 ± 0.044
6,AACGTCTC,-0.0114 ± 0.06
7,ATCTCGAA,-0.141 ± 0.017
8,ATTTCTGG,-0.14 ± 0.0059
9,GGAGGATA,-0.266 ± 0.023
10,CTGTGAGC,0.136 ± 0.034
11,TACACGTA,-0.0249 ± 0.057
12,CCCTACAC,-0.0629 ± 0.069
13,CGTCATCA,0.175 ± 0.013
14,AATGAGGT,0.271 ± 0.019
15,CAACGCAC,0.047 ± 0.033
16,ATAATAGC,-0.0817 ± 0.019
17,CTAGTCTC,0.0185 ± 0.024
18,ACGTGAAC,0.112 ± 0.051
19,CGTGGAAC,0.147 ± 0.0015
20,ATTGTGGA,0.0181 ± 0.017
21,CCATTCAG,-0.0387 ± 0.0073
22,CAGATGCC,-0.314 ± 0.021
23,GACGGGGA,-0.0268 ± 0.028
24,CGCGGGCC,0.00504 ± 0.059
25,ATGTAGTC,-0.282 ± 0.024

row,Sequence,PBM E-score of 8-mer
1,CACTACAG,0.00051 ± 0.048
2,GGTAACCA,-0.0769 ± 0.024
3,CGGAGTAC,-0.162 ± 0.11
4,GCTTTGAA,-0.183 ± 0.068
5,TGATCCCA,-0.112 ± 0.056
6,AAAAGCCA,-0.0672 ± 0.035
7,CCCGTGAG,0.0245 ± 0.051
8,CCCGCAGG,0.0104 ± 0.039
9,TAGTACAA,0.0583 ± 0.059
10,CACTTCTA,0.329 ± 0.03
11,CTGATCAC,0.109 ± 0.069
12,AAGAACGA,-0.309 ± 0.022
13,CGCACTTA,0.293 ± 0.022
14,TCGGTACA,-0.148 ± 0.058
15,ACGTCAGG,-0.133 ± 0.027
16,CATCGGGG,-0.1182 ± 0.00077
17,AAAGGCTG,-0.0206 ± 0.023
18,AGGTCCTA,-0.00696 ± 0.067
19,GCTTGGTA,-0.112 ± 0.032
20,CATGGTAC,-0.0102 ± 0.01
21,GGATGGGA,-0.263 ± 0.062
22,ACGTCAAG,0.0181 ± 0.047
